Laboratory results as given in publication PMC4336329 (PLoS ONE, 2015).
The whole screen tested about 310,000 compounds, of which about 2,200 (0.71%) showed an effect of 50% or more. The effect is printed as a negative number. The list shows a part of the results.

Each compound was assayed against human ether-à-go-go-related gene (hERG) potassium channel (human, UniProt Q12809) (assay: primary screen, population patch clamp on CHO cells stably expressing hERG).
Sequence of human ether-à-go-go-related gene (hERG) potassium channel (Q12809 whole entry, looked up): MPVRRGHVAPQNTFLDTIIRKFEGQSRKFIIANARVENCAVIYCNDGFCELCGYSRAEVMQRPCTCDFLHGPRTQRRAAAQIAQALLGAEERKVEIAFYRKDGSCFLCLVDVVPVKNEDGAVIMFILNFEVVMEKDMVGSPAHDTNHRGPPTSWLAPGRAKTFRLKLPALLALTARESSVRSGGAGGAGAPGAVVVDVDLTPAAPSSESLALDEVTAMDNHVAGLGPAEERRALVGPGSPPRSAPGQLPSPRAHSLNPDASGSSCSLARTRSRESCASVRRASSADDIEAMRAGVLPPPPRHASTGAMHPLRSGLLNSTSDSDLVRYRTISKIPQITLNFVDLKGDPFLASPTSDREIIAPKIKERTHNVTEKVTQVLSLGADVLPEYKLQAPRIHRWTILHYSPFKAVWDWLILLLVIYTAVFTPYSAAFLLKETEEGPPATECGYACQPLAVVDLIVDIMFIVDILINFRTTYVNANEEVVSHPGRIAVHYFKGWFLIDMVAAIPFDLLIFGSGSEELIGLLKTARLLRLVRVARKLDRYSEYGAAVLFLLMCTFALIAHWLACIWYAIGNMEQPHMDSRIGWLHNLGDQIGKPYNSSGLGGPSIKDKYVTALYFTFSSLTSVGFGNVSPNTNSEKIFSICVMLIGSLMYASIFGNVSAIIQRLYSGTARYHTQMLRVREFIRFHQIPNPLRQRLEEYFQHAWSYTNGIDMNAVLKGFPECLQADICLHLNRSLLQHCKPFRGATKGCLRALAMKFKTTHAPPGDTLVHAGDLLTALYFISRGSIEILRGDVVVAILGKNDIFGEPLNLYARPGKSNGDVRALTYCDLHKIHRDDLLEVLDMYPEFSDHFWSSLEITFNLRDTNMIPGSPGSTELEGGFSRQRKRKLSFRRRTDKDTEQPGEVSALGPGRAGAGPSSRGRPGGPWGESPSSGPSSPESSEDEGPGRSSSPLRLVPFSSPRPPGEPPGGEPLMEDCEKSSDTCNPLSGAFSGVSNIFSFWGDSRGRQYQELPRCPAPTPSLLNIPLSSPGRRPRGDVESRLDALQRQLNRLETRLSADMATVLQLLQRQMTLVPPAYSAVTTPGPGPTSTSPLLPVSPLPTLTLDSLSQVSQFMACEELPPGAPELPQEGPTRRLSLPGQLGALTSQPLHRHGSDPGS

First: CC(C)c1nnc(NC(=O)c2nc(S(=O)(=O)Cc3ccccc3F)ncc2Cl)s1
Second: COC(=O)c1sc(NC(=S)NC(=O)c2ccccc2C)nc1C
The “hERG current change (%, negative = inhibition) at 1uM” value of the first is lower: 7.62% for the first, 10.2% for the second.

Going from `O=C(CCS(=O)(=O)c1ccc(Br)s1)NCc1ccc2c(c1)OCO2` to `CCn1c2ccc(CC(=O)O)cc2c2cc(CC(=O)O)ccc21`, the “hERG current change (%, negative = inhibition) at 1uM” value rises from 3.04% to 15.2%.

Going from `O=C(NNC(=O)C(c1ccccc1)c1ccccc1)c1cccs1` to `N#Cc1cc(-c2ccccc2)oc1NC(=O)c1ccccc1`, the “hERG current change (%, negative = inhibition) at 1uM” value falls from 22.2% to 7.8%.

First: COC(=O)N/N=C/c1ccc(-c2cccc(Cl)c2)o1
Second: COc1cc(Cl)nn(-c2ccccc2)c1=O
The “hERG current change (%, negative = inhibition) at 1uM” value of the first is lower: 3.19% for the first, 13.3% for the second.

Going from `O=C(Nc1ccccc1O)c1cc2cc(Br)ccc2oc1=O` to `O=C(Nc1ccc(F)c([N+](=O)[O-])c1)C(=O)c1c(O)[nH]c2ccccc12`, the “hERG current change (%, negative = inhibition) at 1uM” value rises from 10% to 14.7%.

Compared with `COC(=O)CC1NCCNC1=O` (stereo not drawn), `CCCCCNC(=O)C1CCC(Cn2c(=S)[nH]c3ccccc3c2=O)CC1` (stereo not drawn) is higher in “hERG current change (%, negative = inhibition) at 1uM” value: 9.71% for the first, 11.4% for the second.

First: Cc1ccc(NC(=S)N(CCCN2CCOCC2)Cc2ccccn2)cc1
Second: C#CCN(C(=O)c1ccc(OC2CCN(Cc3ccccn3)CC2)cc1)C1CCCCC1
The “hERG current change (%, negative = inhibition) at 1uM” value of the first is lower: -7.02% for the first, -2.82% for the second.

First: O=[N+]([O-])c1cc(S(=O)(=O)N2CCCC2)ccc1OCCOc1ccccc1
Second: CCOc1ccc(S(=O)(=O)NCCC(=O)N2CCC(Cc3ccccc3)CC2)cc1
The “hERG current change (%, negative = inhibition) at 1uM” value of the first is lower: -15.7% for the first, -0.558% for the second.

First: COc1cc(/C=C/C(=O)O)ccc1OCc1ccc([N+](=O)[O-])cc1
Second: COc1cc(CCC(=O)OCC(=O)c2ccc[nH]2)cc(OC)c1OC
The “hERG current change (%, negative = inhibition) at 1uM” value of the first is higher: 9.78% for the first, 8.51% for the second.

Going from `Cn1c2c(c(=O)c3ccccc31)CCC(C)(C)O2` to `CCn1c(=O)c([N+](=O)[O-])c(N2CCOCC2)c2ccccc21`, the “hERG current change (%, negative = inhibition) at 1uM” value falls from 14% to 8.89%.

First: COc1ccc(C(=O)C2CCCN(C(=O)c3ccc4cc[nH]c4c3)C2)c(C)c1 (stereo not drawn)
Second: CC1CCCN(C(=O)Cc2cccc3ccccc23)C1 (stereo not drawn)
The “hERG current change (%, negative = inhibition) at 1uM” value of the first is lower: 2.73% for the first, 11% for the second.

Going from `N#CC(C(=O)Nc1ccc(Cl)cc1)=C1Nc2ccccc2N1` to `COC(=O)c1sccc1NC(=S)Nc1ccc(F)cc1`, the “hERG current change (%, negative = inhibition) at 1uM” value falls from 13.2% to 6.41%.

Compared with `Oc1ccc(/C=N/Nc2cc(N3CCOCC3)nc(N3CCOCC3)n2)cc1O`, `COc1ccc(C2(C(=O)NCCN3CCOCC3)CCOCC2)cc1` is lower in “hERG current change (%, negative = inhibition) at 1uM” value: 12.2% for the first, 3.91% for the second.

Compared with `Cn1c(SCC(=O)N2CCCCCC2)nc2c(c1=O)SCC2`, `Cc1[nH]n(C(N)=S)c(=O)c1N=Nc1ccc(S(=O)(=O)N2CCCCCC2)cc1` is higher in “hERG current change (%, negative = inhibition) at 1uM” value: 16% for the first, 16.5% for the second.

First: CCC(C)(C(=O)NC1CCCC1)N(CC1CCCO1)C(=O)CNC(=O)c1ccccc1 (stereo not drawn)
Second: Cc1ccc(-c2nn(-c3ccccc3Cl)cc2C(=O)NCC2CCCO2)cc1 (stereo not drawn)
The “hERG current change (%, negative = inhibition) at 1uM” value of the first is lower: 8.4% for the first, 18.4% for the second.

First: C[C@H](C(=O)O)c1n[nH]c(=O)c2ccccc12
Second: C[C@H](NC(=O)c1[nH]cnc1C(=O)Nc1ccon1)c1ccccc1
The “hERG current change (%, negative = inhibition) at 1uM” value of the first is lower: 7.97% for the first, 20% for the second.

Compared with `CC(=O)Nc1cc(-n2cnnn2)ccc1C`, `Cc1cc(C)nc(SCC(=O)N(C)C)n1` is lower in “hERG current change (%, negative = inhibition) at 1uM” value: 14.7% for the first, 6.9% for the second.

Going from `COc1ccc(-c2ccnc3nc(Sc4ncc(C(F)(F)F)cc4Cl)nn23)cc1` to `O=C(c1ccc(=O)[nH]n1)N1CCN(S(=O)(=O)c2ccc(C(F)(F)F)cc2)CC1`, the “hERG current change (%, negative = inhibition) at 1uM” value rises from -2.72% to 0.105%.

Going from `CC(ON1CC1(C(F)(F)F)C(F)(F)F)(C(N)=O)C(N)=O` (stereo not drawn) to `CCCc1nn(C)c(C(N)=O)c1[N+](=O)[O-]`, the “hERG current change (%, negative = inhibition) at 1uM” value rises from 2.65% to 10.2%.

First: O=C(COc1ccc(Cl)cc1)NN=C1CCCCCCC1
Second: O=C(NCCC1=CCCCC1)c1ccc(F)c(S(=O)(=O)N2CCOCC2)c1
The “hERG current change (%, negative = inhibition) at 1uM” value of the first is lower: 7.41% for the first, 15% for the second.

Going from `CN(c1ccc(C(=O)Nc2ccc(S(=O)(=O)N3CCCC3)cc2)cc1)S(C)(=O)=O` to `Cc1ccc(OCC(=O)Nc2ccc(S(=O)(=O)Nc3onc(C)c3C)cc2)cc1`, the “hERG current change (%, negative = inhibition) at 1uM” value falls from 16.3% to 12.2%.

Compared with `CCOC(=O)C1CCCN(Cc2c(Cl)cccc2Cl)C1` (stereo not drawn), `CCCc1c(C)c2cccc(C)c2[nH]c1=O` is higher in “hERG current change (%, negative = inhibition) at 1uM” value: -3.08% for the first, 6.68% for the second.

`CCCN(CCC)c1nc(-c2ccccn2)nc2ccccc12` was tested, and the “hERG current change (%, negative = inhibition) at 1uM” value was -72.4%.
